Measured values published in the supplement of paper PMC3334620.
The full ranking holds about 33,000 sequences; the median of “E-score (-0.5 to 0.5)” is about -0.036, and the highest 2% start at about 0.37. This is one part of the list.

target: T1, Yer064c (UniProt P40041); test: PBM E-score (8-mer binding enrichment) (E-score (-0.5 to 0.5)); higher = stronger / more preferred TF binding; most listed sequences are background and not binding sites; settings: protein concentration: 200 nM; construct: GST-full length
T1 sequence: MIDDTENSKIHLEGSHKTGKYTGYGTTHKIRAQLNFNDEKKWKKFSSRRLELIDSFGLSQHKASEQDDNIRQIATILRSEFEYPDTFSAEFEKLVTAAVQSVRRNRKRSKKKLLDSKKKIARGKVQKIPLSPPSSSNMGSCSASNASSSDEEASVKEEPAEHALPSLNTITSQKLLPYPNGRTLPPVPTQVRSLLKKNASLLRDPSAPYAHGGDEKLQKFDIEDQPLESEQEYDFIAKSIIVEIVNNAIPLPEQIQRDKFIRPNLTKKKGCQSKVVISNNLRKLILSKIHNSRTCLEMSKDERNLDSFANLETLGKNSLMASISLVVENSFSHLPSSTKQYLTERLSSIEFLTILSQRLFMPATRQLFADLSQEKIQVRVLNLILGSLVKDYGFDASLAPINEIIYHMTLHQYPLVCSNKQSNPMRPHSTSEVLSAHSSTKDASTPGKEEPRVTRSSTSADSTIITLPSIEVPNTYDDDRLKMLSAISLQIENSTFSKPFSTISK
Method in brief: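 Universal all-10-mer Agilent arrays, double-stranded by primer extension on fresh or once-stripped slides, were probed with about 100-200 nM GST-tagged yeast transcription factors made by PURExpress. Fluorescent anti-GST detected bound protein, and masliner normalised the scans. E-scores from the Universal PBM Analysis Suite were given to each ungapped eight-base word pooled with its reverse complement.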

Sequence	PBM E-score
GCAGTGCC	-0.336
ATGCGTAC	0.00051
TCACAAGA	0.172
CGCCGAAC	-0.092
GTTTGCGA	0.0615
CGCAGCCA	0.0799
AGTTGGGA	-0.0942
ATAGCCAT	0.261
GAGTGAGA	0.143
ATAGCTCG	-0.0461
ACGACACA	0.0398
CTACCAGA	-0.00486
TGTAATAA	0.0825
ATTCGACC	0.00755
CGCGTTCC	-0.194
AACCTGTC	-0.0991
CTGATGAA	0.0655
GAGTGGGA	-0.0791
CCACGCGG	-0.181
CCCATTAA	-0.0295
AATCATCA	0.463
CATGGAAA	0.0483
ACAGCAGG	-0.16
ATGACGGA	-0.0217
GAAGCATA	-0.00207

Sequence	PBM E-score
GCTATTTA	0.0946
ACGCACTG	-0.213
AAAAGACA	-0.0266
ACTCTGCC	0.089
CTGTTTAC	-0.0257
CTCCTAAC	0.0203
ACCGAGAA	-0.0423
AATTCATA	0.0256
CCAGTTAA	0.0803
CCATAGAC	-0.0471
GTTATCCA	0.0527
AACGTAGG	-0.222
GACCGTCC	-0.311
AACACGTA	-0.0281
CAAAGCTC	-0.0324
GAGTAGAC	0.0494
CCAAACAG	-0.188
GCCAGGAA	-0.00995
AGTGACAT	-0.198
GAGCGCTA	-0.0195
GACGCAAA	-0.146
GCTGACTA	0.467
ACTATGCA	0.166
TAGCTTAA	0.0953
TAATATAA	0.162

Sequence	PBM E-score
GAAGCGCC	-0.149
ATGCGGTC	-0.044
AATGAGTG	0.249
CTGATCGC	-0.0451
CCATGCGA	-0.0695
ATCACTAA	0.133
CCCGCCCC	-0.223
AAGAATCC	0.0397
CCTGCTAG	-0.0964
AAGGATGC	-0.261
ACATCTCG	-0.0636
AGGCATTC	-0.366
GAGTACCA	0.252
AAACACCT	0.129
TATCGTGA	0.0727
AGTTCCAT	0.0111
AGGTGTAC	-0.0899
AAGATGTG	0.0624
GGACTACC	0.284
ACGCCCAC	-0.131
TTAGACAA	-0.00707
GGCGTCTA	-0.224
GGTTGTGA	0.0869
GCGCTGAA	-0.211
AAGAAAAA	0.0602

Sequence	PBM E-score
ATGACCTG	0.092
ATTACTGA	-0.00514
CTACTGAG	0.157
TCCAAAGA	0.165
CCTCAATA	-0.0844
CGTTGCGA	-0.0377
ACGCACCG	-0.11
GATGGATA	0.0115
ACCTTACT	0.0671
TAAGGCGA	-0.124
GTACGTAA	-0.0674
AACAGAGT	0.227
AATGCGAA	-0.0878
ATAACTCG	0.0398
GTTATAAC	-0.256
CCCAAGAA	0.00379
AATCCAAT	-0.0757
GCCATAAA	-0.184
GGTAAACC	-0.227
GTCACGCA	0.167
CAGCAAGC	-0.198
ACTCACTC	0.371
CACCACTC	-0.00325
ACCACCGG	-0.122
GAGCCCCA	-0.0862

Sequence	PBM E-score
AATTGAAC	-0.015
AGCGGCAA	-0.0935
ACTATAGA	0.0966
ACCCCTGG	0.0365
CCATACAG	0.105
AATCCCTC	-0.0606
AGCGCGCA	-0.132
CGAGCTTC	0.052
AGAACCTA	-0.129
ATGTCTCG	0.17
AAGTTGAA	-0.00081
CATTTGCA	-0.0432
CCATACTC	-0.0158
ACCATCTA	-0.191
GCCTATGA	0.0271
AGTTCAAG	0.129
GGTGCATA	-0.146
CAAGATCG	-0.0652
CTGTGGAA	0.0224
CTGTAAGC	-0.0285
CACTGGGC	-0.166
GCTAATCC	-0.145
ATGTAATA	-0.0893
TTGAGAAA	0.142
GCGGACCA	-0.0691

Sequence	PBM E-score
CAAGAGCC	0.00459
CTTGAACA	-0.138
AAGCCGGA	-0.19
AACGTCGC	-0.181
CAGGGGAC	-0.0814
CGATGGCG	0.0101
AATCCGGT	0.0049
TATCTGCA	-0.0107
ACCTCCCG	-0.268
AAATTCTT	-0.126
GGCTCCTA	-0.261
TACAAGGA	0.0157
CTTCACCC	-0.0182
GTTACGAA	-0.142
ACGTGCAA	-0.176
GAAACCAC	0.0141
CAGCCCGC	0.0809
CAAACACG	-0.111
GACTAGAC	0.286
TGCGCTAA	0.0622
GCCGTTCC	-0.225
TATCTTGA	0.0512
CAGCAAAG	0.00732
ATTGGCAG	0.0789
ACGCTGCC	-0.129

Sequence	PBM E-score
AGTCTCTC	0.3
GTCTCGAA	0.0844
AAACAATA	0.155
CCTAAGCC	-0.208
CAAACCAG	-0.101
CCCGAACC	-0.186
GGTAACAC	0.122
GGTCCTGA	-0.0819
CCGGTGCG	0.0328
CAGTGGTC	0.0376
CCTTATAC	-0.0382
CAGTCACG	0.413
CCTGGTAG	-0.295
CACACGCA	-0.0706
CACACCGG	-0.0864
CTGCTGGC	-0.248
AAATATTT	0.177
ACCGTCCG	-0.319
CCACTCTA	0.0684
AATTTTCA	-0.0286
GACACTCA	0.0855
ACAGCTTG	0.0501
CTGCCAGA	-0.14
ACTCCACT	0.183
TAATGCGA	0.0426

Sequence	PBM E-score
CTTTCACC	-0.101
AGTACACC	0.0591
ATATACCG	0.0634
CGCAGCTA	0.097
TCCTACGA	0.0576
TTCCCGAA	-0.226
AGTGGGGA	-0.228
AAGCTCTC	-0.236
AGTTACTC	0.258
ACTGTGTA	0.193
ATATTTTG	0.101
ACGCTATA	-0.146
CCTTTTAG	0.00296
AAATTGAC	0.119
ATATATAA	0.0961
ATGTCTCA	0.414
CCCGTATA	-0.173
CCACACTC	-0.0127
ACTCTGCT	0.0892
ATGCGAGC	-0.21
ATACAAAA	0.156
GCACGTAC	-0.196
ACACTTTC	-0.0867
ACAAAGAC	0.201
GCTGTGTA	0.108

Sequence	PBM E-score
CTCTAAGC	-0.0687
CATAGGGA	-0.00985
CCCCCTCA	-0.332
CCGAATAG	-0.139
ACCTAGGC	-0.181
CATCAGTC	0.321
ACGTGGAT	-0.0488
ACCCCAAC	-0.0468
ACGCAGTG	-0.0716
ATGTACAA	-0.165
ACGGTACC	-0.12
ACAATATA	-0.0177
CTCCAGTA	0.0727
CTATGCAA	-0.0674
CGCTCCTC	-0.18
ACTGCCAT	0.0149
TAACCAGA	0.0739
ACCGGGAT	-0.146
ACCCTACG	-0.0986
AGTCATAC	0.486
CGTTCCGA	-0.059
GCACATCC	-0.099
GGGAGGCA	-0.0617
ATCCTCTC	-0.0686
GTCGCAAA	0.0577

Sequence	PBM E-score
CGTACCCC	-0.0666
AGGCTGTA	0.0748
ACAAAGAT	0.101
ACATTATC	-0.0242
AATTCCTA	0.199
CTAGGCAG	-0.0118
ACATGGAA	-0.126
ACACCGGT	-0.114
GAGTCACA	0.493
CCACAACA	-0.178
CGACCAGC	-0.303
AGTCTTAA	0.387
CCATAACA	0.0487
ACCGCTCG	-0.201
CTAGCTAA	0.0229
GTTGAGTA	0.292
ATTGGGTC	-0.0594
ATTTCTAA	-0.172
AGCGCGAC	0.15
CCCAGAAC	-0.0764
AATCCTAC	-0.0673
ATTCGGCA	-0.0455
AGTCCAGC	0.0731
CATCAAGC	0.0135
GGCCGCCC	-0.257

Sequence	PBM E-score
GGTTAACC	0.329
AAGCGTCA	-0.0121
AACCTTTG	-0.0673
AACATTCC	-0.199
CGATTCCA	-0.102
AGGTTACC	-0.0652
CGAGGTTC	-0.0505
ATGAAACC	0.0106
AGTCCCAA	0.236
AATTGTGA	0.185
CGGAGTTC	-0.146
TGTGAGAA	0.0508
ACGGGATC	-0.171
GAGAGTCA	0.481
TCCACCCA	-0.0817
GCACTGAA	-0.155
ATCAGCTC	0.0634
ATGTAGTA	0.0442
TAAGTCTA	0.053
CTAACCCA	0.213
CGGCCCCC	-0.321
TGTTGAAA	0.0239
CTTTAGGA	0.146
AAGCTGTG	-0.12
ATGAGCTA	0.104

Sequence	PBM E-score
GGGATTTA	-0.225
ACCATCAT	0.123
GTTAAATA	0.137
GAACGGCA	-0.132
CAGCACGA	-0.0349
CACGTAAC	-0.104
GCCGCTAC	-0.261
AGTATGTG	0.0421
CACTATCA	-0.0721
TCTTTGAA	0.0685
GAACAAAA	0.0375
CAGTTCAA	-0.0435
AACCAAAA	0.011
CCCACATA	0.0317
ATTTCTAG	-0.0357
ACCCAGGA	-0.127
CCAGCACA	-0.0355
CGCTCCGC	-0.26
GTAGTGAA	-0.0203
TAGGCTAA	-0.141
CACGCGAA	-0.107
AATCTGCA	-0.0558
CACAAGTG	-0.0715
GTGTATGA	0.216
ACGGTTAA	0.0809

Sequence	PBM E-score
ATGATCGG	-0.0977
ATCCTTTA	0.124
ATTTATGA	0.236
AGAGGTAT	0.146
CGTTTGAC	0.0916
AAATTATC	0.0717
GTGTAGGA	-0.0235
AGATTGAC	0.227
GACGTAAC	-0.00076
GAAGGATA	0.0607
ACAGGCGC	-0.132
AGCAGAAG	-0.0731
TCGTATCA	0.123
GAGCGCAA	-0.139
GCGGGTTA	0.0254
CCGCGAGA	-0.014
CGAGTCAC	0.477
ATCTAGAT	0.0739
AGGTTTGG	-0.133
ACAAGTCC	-0.047
CAGTGCCA	-0.307
CTCTTAGC	0.0139
ATCAGTCA	0.434
ATGAACTC	0.248
GAATAACA	0.0178

Sequence	PBM E-score
GACCACTA	0.0368
AAATTGCG	-0.043
AATAGACA	0.0418
AGGAGAAA	-0.108
CTCTATGA	0.236
GTGTACAA	0.0596
GGCTTTAC	0.0995
ACCGGAGT	0.0908
AAGCCATA	0.102
ACGCTCCC	-0.0617
TCTTTTCA	0.017
GAACGGTC	-0.211
AATATATC	-0.0361
AGGAAAAT	-0.107
ATTACCAC	-0.0144
AACTGACA	-0.287
GAAGCTTA	-0.146
CTATGTAC	-0.0546
GAGACGGC	-0.0746
